Test results reported in PubChem BioAssay AID2060492 (Molecular Pharmacology Branch, DTP, NCI, 2025).
A number of entries come with more than one value. The other results are left out here. The source may hold further records. Values that stand side by side are repeated measurements (runs, samples, wells, individuals or studies). Additions like (4×) give the number of equal values in this list.

Tested on: 695427-040-R-J1-PDC complex spheroids, viability percent T/C
Assay: Anticancer human tumor 695427-040-R-J1-PDC patient-derived colon adenocarcinoma cell line growth inhibition [GQUAD]
Settings: for IC50: compound alone; for viability, T/C: stronger effect = lower value
Description: DNA G-quadruplex Stabilizer Agents in Combinations in Complex Spheroids
A high-throughput screen of multi-cell type tumor spheroids was designed to identify active combinations of DNA G-quadruplex stabilizer agents and targeted small molecules. Complex spheroids include a stromal component modeled by human endothelial cells (HUVEC) and fibroblasts modeled by human mesenchymal stem cells (MSCs). The concentration ranges selected for each drug and investigational agent were based upon clinically achievable concentrations if the clinical Cmax of the agent was known.
Compounds. The drugs and investigational agents: pidnarulex (CX-5461; NSC782164), APTO-253 (NSC789042), BRACO-19 (NSC847499), peposertib (NSC802822), ceralasertib (NSC780249), elimusertib (NSC800525), camonsertib (NSC841442), AZD-1390 (NSC803789), olaparib (NSC753686), talazoparib (NSC767125), ART-558 (NSC835418), sotorasib (NSC818433), MRTX-1133 (NSC836407), SN-38 (NSC673596), topotecan (NSC609699), etoposide (NSC141540), doxorubicin (NSC123127), gemcitabine (NSC613327), 5-fluorouracil (NSC19893), paclitaxel (NSC125973), vemurafenib (NSC761431), panobinostat (NSC761190), R-306465 (JNJ-16241199; NSC773264), adavosertib (NSC754352), TP-3654 (NSC805149), carboplatin (NSC241240), KSQ-4279 (NSC840948), and staurosporine (NSC755774) were obtained from the National Cancer Institute (NCI) Developmental Therapeutics Program Chemical Repository (34). The FDA-approved anticancer drug set is available from the NCI Developmental Therapeutics Program. […] The stock solutions were prepared in dimethyl sulfoxide (DMSO, Sigma-Aldrich, St. Louis, MO, cat. D2650) at 800-fold the tested concentration and stored at -70 degrees C prior to their use. All drugs and investigational agents were tested over a range starting from a high concentration at or near the clinical Cmax and decreasing in half-log increments. If the clinical Cmax for an agent had not been determined, the highest concentration tested was 10 microM.
2.3 Cell Culture. All cells were maintained in an incubator at 37 degrees C and 5% CO2 with 95% humidity. The PDC lines were cultured according to standard operating procedures established by the NCI PDMR. All PDCs were thawed and cultured in Matrigel-coated flasks prepared with a working solution of 1X Ham's F-12 nutrient mix, without supplementation (Invitrogen, cat. 11765054), 100 U/mL penicillin-streptomycin (Invitrogen, cat. 15140122), and 2.5% Matrigel (Corning Inc., cat. 354248) for the first three passages. The 857933-349-R-J2-PDC line was cultured in 6C/Colon 1B media, which includes advanced DMEM/F-12 (Thermo Fisher Scientific, cat. 12634028), 10 mM HEPES (Thermo Fisher Scientific, cat. 15630080), 1X GlutaMAX supplement (Thermo Fisher Scientific, cat. 35050061), 0.1 mg/mL primocin (InvivoGen, cat. ant-pm-2), 10% defined fetal bovine serum, heat inactivated (HyClone Laboratories Inc., cat. SH30070.03HI), 50% L-WRN conditioned media (ATCC, cat. CRL-3276), 1.25 mM N-Acetyl-L-cysteine (Sigma-Aldrich, cat. A9165), 10 mM nicotinamide (Sigma-Aldrich, cat. N0636), 1X B-27 supplement (Thermo Fisher Scientific, cat. 17504044), 1X N-2 supplement (Thermo Fisher Scientific, cat. 17502048), 10 microM Y-27632 dihydrochloride (Tocris Bioscience, cat. 1254), and 50 ng/mL human EGF recombinant protein (Thermo Fisher Scientific, cat. PHG0311). The 485176-168-R4-J1-PDC line was cultured in Panc media, which includes all 6C/Colon 1B media components plus 100 ng/mL human FGF-10 (Thermo Fisher Scientific, cat. 100-26), 500 nM SB-431542 (Selleckchem, cat. S1067), and gastrin (Tocris, cat. 3006).
[…]
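Also: spheroids exposed to compounds for seven days before readout.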

| IC50 | Structure (SMILES) | viability, T/C (compound alone 1 µM) | viability, T/C (compound alone 3.16 µM) | viability, T/C (compound alone 10 µM) | viability, T/C (compound alone 0.0316 µM) | IC50 (run of 04/16/2024) |
| --- | --- | --- | --- | --- | --- | --- |
| 457 nM, > 10 µM, 467 nM | O=C(NO)c1cnc(N2CCN(S(=O)(=O)c3ccc4ccccc4c3)CC2)nc1 | 5.02%, 94.8%, 3.55% | 0.3%, 78%, 0.28% | 0.33%, 72.2%, 0.47% | – | – |
| > 10 µM (2×) and 462 nM | CC(=O)O[C@H]1C(=O)[C@@]2(C)[C@H]([C@H](OC(=O)c3ccccc3)[C@]3(O)C[C@H](OC(=O)[C@H](O)[C@@H](NC(=O)c4ccccc4)c4ccccc4)C(C)=C1C3(C)C)[C@]1(OC(C)=O)CO[C@@H]1C[C@@H]2O | 72.4%, 3.24%, 89.7% | 61.3%, 0.31%, 83.7% | 57%, 0.29%, 72.7% | – | – |
| – | Cc1[nH]c2ccc(F)cc2c1-c1nc2c3cccnc3c3ncccc3c2[nH]1 | – | – | – | 105, 112, 102 (2×), 85.6, 107, 94.3, 88.1, 93.4, 96, 99.7, 101% | – |
| – | Cc1cnc(CNC(=O)c2c(=O)c3ccc(N4CCCN(C)CC4)nc3n3c2sc2ccccc23)cn1 | – | – | – | – | 4.89 µM, > 10 µM, 6.05 µM, 7.12 µM, 4.41 µM, 3.93 µM, 6.21 µM, 6.94 µM, 4.29 µM, 4.44 µM, 8.09 µM |
